{"source": "PubChem BioAssay (Tox21)", "key": {"[1]": {"tested_on": "thyroid hormone receptor (rat, GH3 cells)", "test": "qHTS assay to identify small molecule agonists of the thyroid receptor (TR) signaling pathway (AID 743066; calls by dose curve; further: on the % scale 0 is the no-effect control and ±100 the full control effect)", "conditions": "GH3.TRE-Luc cells, TR agonist luciferase, 24 h; activation: at 83.9 µM (top of the series) unless noted"}, "[2]": {"test": "qHTS assay to identify small molecule agonists of the estrogen related receptor signaling pathway with the pleiotropic PPARgamma coactivator (PGC) from Tox21 10K library (AID 1224842); further: potency means the concentration at half of the fitted maximal effect; nearly all actives have a fitted effect of over 15% in size", "in_short": "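PGC/ERR reporter cells (NTP line) were seeded 2,000 per well, rested 6 h at 37 C/5% CO2, then pin-dosed with compounds in DMSO for 18 h at 37 C; luciferase read by One-Glo luminescence after 30 min at room temperature.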"}, "[3]": {"test": "qHTS RealTime-Glo MT Cell Viability Assay in HepG2 cells - 8 hour (AID 1224873); further: nearly all actives have a fitted effect of over 55% in size; further: potency means the concentration at half of the fitted maximal effect; on viability change, negative = cytotoxic: on the % scale 0 is the no-effect control and ±100 the full control effect", "in_short": "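HepG2 cells mixed with RealTime-Glo MT reagents (NanoLuc plus cell-permeant prosubstrate) were seeded at 600 cells/well, incubated 5 h at 37 C/5% CO2, then pinned with compounds in DMSO; nonlytic luminescence tracked viability during 40 h treatment.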"}, "[4]": {"test": "qHTS assay to identify small molecule agonists of the sonic hedgehog signaling (Shh) pathway - cell viability counter screen (AID 1259366); further: nearly all actives have a fitted effect of over 50% in size; further: potency means the concentration at half of the fitted maximal effect; on viability change, negative = cytotoxic: on the % scale 0 is the no-effect control and ±100 the full control effect", "in_short": "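After a 4hr attachment at 37C, NIH/3T3 cells bearing an integrated Gli1-driven luciferase reporter were dosed with compounds. Treatment lasted 24hr, with the final hour including CellTiter-Fluor for a fluorescence viability measurement.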"}, "[5]": {"test": "Caspase-3/7 induction in HepG2 cells by small molecules, qHTS cell viability counter screen (AID 1346981); further: nearly all actives have a fitted effect of over 30% in size; further: potency means the concentration at half of the fitted maximal effect", "in_short": "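Cell viability is measured as a cytotoxicity counter screen alongside the Caspase-Glo 3/7 readout in identical wells. Wild-type HepG2 cells are treated with test compounds for 16 hr at 37 C before CellTiter-Fluor addition and a 1-hr incubation.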"}, "[6]": {"test": "qHTS assay to identify aromatase inhibitors - cell viability counter screen (AID 743084);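 further: cells stimulated with testosterone during compound exposure; nearly all actives have a fitted effect of over 55% in size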; further: potency means the concentration at half of the fitted maximal effect", "conditions": "MCF-7 aro ERE viability, CellTiter-Fluor, 24 h; activity change, negative = cytotoxicity: at 70.3 µM (top of the series) unless noted"}, "[7]": {"test": "qHTS assay for small molecule agonists of the antioxidant response element (ARE) signaling pathway - cell viability counter screen (AID 743203; calls by dose curve; further: on the % scale 0 is the no-effect control and ±100 the full control effect; nearly all actives have a fitted effect of over 55% in size)", "conditions": "ARE-bla HepG2 viability, CellTiter-Glo luminescence, 16 h; viability change, negative = cytotoxic: at 73.3 µM (top of the series)", "in_short": "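Cytotoxicity was tested in parallel with the ARE reporter screen. ARE-bla HepG2 cells were exposed to compounds for 16 hrs, and viability was taken from CellTiter-Glo luminescence.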"}, "[8]": {"test": "A CellTox Green Cytotoxicity Assay to monitor cytotoxicity in HepG2 cells - 24 hour (AID 1224878); further: potency means the concentration at half of the fitted maximal effect; nearly all actives have a fitted effect of over 45% in size", "in_short": "(§1)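 Cells and non-lytic dye reagent are dispensed together (600 HepG2 cells/well) and incubated 5 h before DMSO compound transfer. Kinetic fluorescence is then recorded in the same wells during 40 h at 37 C.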"}, "[9]": {"test": "A CellTox Green Cytotoxicity Assay to monitor cytotoxicity in HepG2 cells - 8 hour (AID 1224890)", "in_short": "as §1"}, "[10]": {"test": "A CellTox Green Cytotoxicity Assay to monitor cytotoxicity in HEK293 cells - 16 hour (AID 1224888)", "in_short": "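Cells (HEK293, 600/well) and dye reagent are dispensed together. After 5 h at 37 C, 23 nL compound is pinned in. Plates stay at 37 C for 40 h with fluorescence read at 0h, 8h, 16h, 24h, 32h and 40h.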"}, "[11]": {"test": "qHTS assay to identify small molecule agonists of the androgen receptor (AR) signaling pathway in the presence of an antagonist - cell viability counter screen (AID 1259379)", "in_short": "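Cytotoxicity is assessed by CellTiter-Fluor in MDA-kb2 cells carrying an MMTV-driven luciferase reporter. Cells receive 3.0uM nilutamide plus compounds at 15 concentrations and incubate 16 hr at 37C without CO2 before fluorescence reading.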"}, "[12]": {"biological_target": "Cytochrome P450 3A4 (Homo sapiens) (UniProt P08684)", "sequence (P08684 whole entry, looked up)": "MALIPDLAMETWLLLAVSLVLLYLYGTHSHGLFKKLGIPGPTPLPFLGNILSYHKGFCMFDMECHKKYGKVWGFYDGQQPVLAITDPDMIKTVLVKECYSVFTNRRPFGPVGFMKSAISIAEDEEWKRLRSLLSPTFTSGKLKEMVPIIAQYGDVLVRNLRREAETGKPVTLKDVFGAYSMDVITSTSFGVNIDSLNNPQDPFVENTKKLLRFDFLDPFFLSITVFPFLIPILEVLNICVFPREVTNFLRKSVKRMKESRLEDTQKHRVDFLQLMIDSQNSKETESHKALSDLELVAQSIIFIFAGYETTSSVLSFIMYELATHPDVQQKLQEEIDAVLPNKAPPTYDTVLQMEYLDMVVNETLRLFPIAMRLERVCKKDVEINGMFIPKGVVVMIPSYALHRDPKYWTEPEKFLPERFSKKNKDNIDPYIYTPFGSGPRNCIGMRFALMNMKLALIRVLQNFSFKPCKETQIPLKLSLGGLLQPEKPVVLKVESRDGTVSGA", "test": "Cytochrome P450 Family 3 Subfamily A Member 4 (CYP3A4) small molecule antagonists: luciferase reporter qHTS assay (AID 1671201)", "in_short": "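Setup: enzyme-substrate mix, compound pin transfer, 10 min RT. Reaction: NADPH regeneration solution, 1 h RT. Readout: detection reagent stops turnover, luminescence measured after 20 min, expressed in relative luminescence units.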"}, "[13]": {"biological_target": "Peroxisome proliferator-activated receptor gamma (Homo sapiens) (UniProt P37231)", "sequence (P37231 whole entry, looked up)": "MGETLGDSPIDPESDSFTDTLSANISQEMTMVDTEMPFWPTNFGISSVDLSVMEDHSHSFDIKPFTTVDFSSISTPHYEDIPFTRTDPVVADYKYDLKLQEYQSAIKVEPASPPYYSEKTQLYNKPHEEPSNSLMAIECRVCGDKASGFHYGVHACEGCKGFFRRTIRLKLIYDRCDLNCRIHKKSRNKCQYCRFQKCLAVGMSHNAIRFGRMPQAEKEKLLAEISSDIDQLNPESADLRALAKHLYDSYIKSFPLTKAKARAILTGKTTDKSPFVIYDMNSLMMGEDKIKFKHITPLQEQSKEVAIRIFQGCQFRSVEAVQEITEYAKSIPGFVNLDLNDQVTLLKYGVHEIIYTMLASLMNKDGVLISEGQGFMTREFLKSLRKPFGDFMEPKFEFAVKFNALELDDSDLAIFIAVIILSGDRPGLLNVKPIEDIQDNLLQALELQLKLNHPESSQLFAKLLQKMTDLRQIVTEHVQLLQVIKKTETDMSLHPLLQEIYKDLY", "test": "qHTS assay to identify small molecule agonists of the peroxisome proliferator-activated receptor gamma (PPARg) signaling pathway (AID 743094; active means well fitted activation curve with a large enough effect in the signal ratio in the repeat runs, not every such curve was filed as active; inconclusive means weak or mixed curves, or effect the other way; inactive means no such curve, though single readings can be large or run the other way; the % refers to the signal ratio)", "conditions": "HEK293H PPARg-UAS-bla, beta-lactamase FRET ratio, 17 h; activation: at 57 µM (top of the series) unless noted", "in_short": "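Cells from the PPARg UAS-bla HEK293H line are plated and incubated 5 h at 37C. Compounds in DMSO are pinned in and left 17 h at 37C. LiveBLAzer B/G substrate is then added for 1 h at room temperature before fluorescence is measured.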"}, "[14]": {"test": "qHTS assay to identify small molecule agonists of the TGF-beta/Smad signaling pathway (AID 1346859; active means well fitted activation curve with a large enough effect in the signal ratio in the repeat runs, not every such curve was filed as active; inconclusive means weak or mixed curves; the % refers to the signal ratio)", "in_short": "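Stable Smad binding element-beta-lactamase HEK 293T cells; 5 hr compound exposure at 37 C under 5% CO2; 2 hr room-temperature substrate step; fluorescence excited at 405 nm, collected at 460 nm and 530 nm.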"}, "[15]": {"test": "qHTS assay to identify small molecule antagonists of the estrogen related receptor (ERR) signaling pathway from Tox21 library - cell viability counter screen (AID 1224834)", "in_short": "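ERR cells, 2,000/well; 6 h settle at 37 C/5% CO2; pin-tool compound transfer in DMSO; 17.5 h at 37 C; CellTiter-Fluor, 30 min; fluorescence intensity.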"}}, "note": "Several values for one entry are separate records, joined by “and”; a condition that tells them apart may be missing. Equal entries are not always repeated. The inconclusive results got no clear call from the source; some entries with a clear call stand among them for comparison. For part of these data: Where the call is inconclusive, the potency comes from a doubtful curve fit. Activity calls are given as the source filed them. Unless noted, the call rests on the fitted dose curve; in most records, active means well fitted curve in the direction sought with a large enough effect in the repeat runs; inconclusive means weak or mixed curves; inactive means no such curve, though single readings can be large; an effect the other way counts as inactive or inconclusive. Tags describe the fitted curve by direction and shape. Wherever activation is given: on the % scale 0 is the no-effect control and ±100 the full control effect.", "data": [{"molecule": "CCOc1nc2cccc(C(=O)O)c2n1Cc1ccc(-c2ccccc2-c2nn[nH]n2)cc1", "values": [{"measurement": "activation", "setting": "[1]", "value": "inconclusive: -8.81% [phenotype inactive]"}, {"measurement": "Potency", "setting": "[2]", "value": "inconclusive: 0.119 µM [activator, partial curve, poor fit]"}, {"measurement": "Potency", "setting": "[3]", "value": "inactive"}, {"measurement": "Potency", "setting": "[4]", "value": "inactive"}, {"measurement": "Potency", "setting": "[5]", "value": "inactive"}]}, {"molecule": "CO", "values": [{"measurement": "Potency", "setting": "[6]", "value": "inactive"}, {"measurement": "Potency", "setting": "[7]", "value": "inactive"}]}, {"molecule": "c1ccc(-c2nc[nH]c2-c2ccccc2)cc1", "values": [{"measurement": "Potency", "setting": "[1]", "value": "inactive"}, {"measurement": "Potency", "setting": "[8]", "value": "inconclusive: 21.3 µM [activator, partial curve]"}, {"measurement": "Potency", "setting": "[9]", "value": "inconclusive: 21.3 µM [activator, partial curve]"}]}, {"molecule": "CC(O)CC(C)O", "note": "(stereo not drawn)", "values": [{"measurement": "Potency", "setting": "[10]", "value": "inconclusive: 60.8 µM [activator, partial curve, poor fit]"}, {"measurement": "Potency", "setting": "[11]", "value": "inactive"}]}, {"molecule": "CCCC(CCC)(C(=O)OCC)C(=O)OCC", "values": [{"measurement": "Potency", "setting": "[9]", "value": "inactive"}, {"measurement": "Potency", "setting": "[12]", "value": "inactive"}]}, {"molecule": "O=C(Nc1ccccc1)OCC(CN1CCCCC1)OC(=O)Nc1ccccc1", "note": "(stereo not drawn)", "values": [{"measurement": "activation", "setting": "[13]", "value": "inconclusive: -13.4% [at 26.2 µM]"}, {"measurement": "Potency", "setting": "[8]", "value": "inconclusive: 26.8 µM [activator, single point]"}, {"measurement": "Potency", "setting": "[4]", "value": "inconclusive: 26.6 µM [cytotoxic, partial curve]"}]}, {"molecule": "CC(C)CCCC(C)CC=O", "note": "(stereo not drawn)", "values": [{"measurement": "Potency", "setting": "[9]", "value": "active: 21.9 µM"}]}, {"molecule": "Clc1cc(Cl)c(-c2c(Cl)c(Cl)cc(Cl)c2Cl)cc1Cl", "values": [{"measurement": "Potency", "setting": "[2]", "value": "inconclusive: 33.5 µM [activator, single point]"}, {"measurement": "Potency", "setting": "[14]", "value": "inactive"}]}, {"molecule": "NC(=O)CCCCC1CCSS1", "note": "(stereo not drawn)", "values": [{"measurement": "Potency", "setting": "[6]", "value": "inconclusive: 18.8 µM [rising, partial curve, poor fit]"}, {"measurement": "Potency", "setting": "[15]", "value": "inactive"}, {"measurement": "Potency", "setting": "[9]", "value": "inconclusive: 9.52 µM [activator, single point]"}, {"measurement": "Potency", "setting": "[5]", "value": "inconclusive: 33.5 µM [rising, partial curve, poor fit]"}]}, {"molecule": "O=S(=O)(O)c1ccc(N=Nc2c(O)ccc3cc(S(=O)(=O)O)ccc23)cc1", "values": [{"measurement": "Potency", "setting": "[6]", "value": "active: 15.4 µM and active: 19.3 µM"}, {"measurement": "Potency", "setting": "[3]", "value": "inconclusive: 43.6 µM [falling, partial curve]"}, {"measurement": "Potency", "setting": "[4]", "value": "active: 30.8 µM and active: 30.6 µM"}]}, {"molecule": "Nc1ccc([N+](=O)[O-])c(N)c1", "values": [{"measurement": "Potency", "setting": "[6]", "value": "active: 33.5 µM"}, {"measurement": "Potency", "setting": "[5]", "value": "inconclusive: 33.5 µM [cytotoxic, partial curve, poor fit]"}]}, {"molecule": "Cc1cc(NC(=O)C2=C(O)c3ccccc3S(=O)(=O)N2C)no1", "values": [{"measurement": "Potency", "setting": "[14]", "value": "inactive"}, {"measurement": "Potency", "setting": "[5]", "value": "inactive"}]}, {"molecule": "OC1OCCOC1O", "note": "(stereo not drawn)", "values": [{"measurement": "Potency", "setting": "[3]", "value": "inactive"}, {"measurement": "Potency", "setting": "[10]", "value": "inactive"}]}]}
